Experimental data reported in PubChem BioAssay AID504832 (National Center for Advancing Translational Sciences (NCATS), 2011).
About 18,000 (5.8%) of roughly 310,000 compounds were called active. Inconclusive results, whose numbers are uncertain, are shown with a selection of clear calls. Calls follow the shape of the dose curve; as a rule, active = well fitted inhibition curve with a large enough effect; inconclusive = small, poorly fitted or top-dose-only effect, or another doubt; inactive = no such curve, though single readings can be large or run the other way. No potency is given beside an inconclusive call; the fits are too rough.
Potency is read from the fitted curve at half-maximal effect; tags tell the direction and shape of the fitted curve.

Assay: Primary qHTS for delayed death inhibitors of the malarial parasite plastid, 48 hour incubation
Conditions: P. falciparum luciferase growth in erythrocytes; series mostly up to 28.7 µM
Procedure, shortened: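 First compound was added to culture medium, then infected red cells at 0.1% parasitemia and 2% hematocrit (final). After incubation at 37 C under 5% CO2, luciferase detection reagent was dispensed and light output recorded.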
With `COc1ccccc1NC(=O)CSc1ccc2nnc(-c3cccnc3)n2n1` the Potency was inconclusive [inhibitor, single point]. For `CCN(CC)CC1C(=O)N(c2ccc(OC)cc2)C1c1ccccc1` (stereo not given), the Potency was inconclusive [inhibitor, partial curve, poor fit]. In the case of `COC(=O)c1ccc(NC(=O)c2sc3nc(-c4ccccc4)cn3c2C)cc1`, the Potency is reported as inconclusive [inhibitor, single point]. For `Cc1cc(OCC(=O)Nc2ccc(Br)cc2)cc2c1C(=O)CC(C)(C)O2`, the Potency was inconclusive [inhibitor, partial curve, poor fit]. In the case of `COC(=O)C1=NNC2(C)C(=O)N(c3ccc(C)cc3)C(=O)C12` (stereo not given), the Potency is reported as “inactive”. In the case of `Cc1cc(C)nc(NC(=O)c2ccc(Cl)c([N+](=O)[O-])c2)n1`, the Potency is reported as inconclusive [inhibitor, single point]. For `Cn1nnc(NCc2cc(Br)ccc2OCc2cccs2)n1`, the Potency was inconclusive [inhibitor, single point]. In the case of `O=C(NC1CCSc2ccccc21)c1c(F)cccc1Cl` (stereo not given), the Potency is reported as “inactive”. In the case of `CN1CCN(c2nc(-c3ccccc3)nc(-c3ccccc3)c2C#N)CC1`, the Potency is reported as inconclusive [inhibitor, single point]. For `O=C(CN1CCN(S(=O)(=O)c2ccc(F)cc2)CC1)Nc1cc(C(F)(F)F)ccc1Cl`, the Potency was inconclusive [inhibitor, partial curve, poor fit]. For `COc1cc(C(=O)OCC(=O)Nc2sccc2C(N)=O)cc(OC)c1OC`, the Potency was “inactive”. For `CSc1nnc2c3ccccc3c3ccccc3c2n1`, the Potency was inconclusive [inhibitor, full curve, poor fit]. For `Cc1c(CC(=O)N2C[C@H]3C[C@@H](C2)c2cccc(=O)n2C3)c(=O)oc2c(C)c(O)ccc12`, the Potency was “inactive”. In the case of `CCC(=O)Oc1c(S(=O)(=O)c2ccc(C)cc2)c(C)nn1C(C)(C)C`, the Potency is reported as inconclusive [inhibitor, full curve, poor fit]. In the case of `Cc1ccc(N(C)S(=O)(=O)c2cccc(C(=O)Nc3ccc(C)cn3)c2)cc1`, the Potency is reported as active: 2.08 µM. For `CCCCN(c1nc2ccccc2nc1Cl)S(=O)(=O)c1ccc(C)cc1`, the Potency was inconclusive [inhibitor, partial curve, poor fit]. For `Cn1c(=O)cc(OCC(=O)NCCc2ccc(Cl)cc2)c2ccccc21`, the Potency was inconclusive [inhibitor, partial curve, poor fit]. With `COc1cccc(C2=NOC(C(=O)N3CCN(C(=O)c4ccco4)CC3)C2)c1` (stereo not given) the Potency was “inactive”. In the case of `CCN(CC)S(=O)(=O)c1cccc(-c2n[nH]c(=S)n2/N=C/c2ccc(C(=O)OC)cc2)c1`, the Potency is reported as inconclusive [inhibitor, partial curve, poor fit]. With `COc1ccc(CC(=O)Nc2cc(S(=O)(=O)N3CCCCC3)ccc2C)cc1` the Potency was inconclusive [inhibitor, partial curve]. In the case of `NNC(=O)c1ccc(NS(=O)(=O)c2ccc(Br)cc2)cc1`, the Potency is reported as “inactive”. For `O=S(=O)(c1ccccc1)c1nc(-c2ccco2)oc1N1CCCCC1`, the Potency was inconclusive [inhibitor, partial curve, poor fit]. In the case of `COc1ccc(CCCc2n[nH]c(=S)o2)cc1`, the Potency is reported as “inactive”. In the case of `CC(C)c1ccc(NC(=O)CSc2ncccc2C(=O)Oc2cccc([N+](=O)[O-])c2)cc1`, the Potency is reported as “inactive”. With `OCC1(Cc2ccccc2F)CCCN(CC2CCCCC2)C1` (stereo not given) the Potency was “inactive”. In the case of `COc1ccc(-c2nnc(N3CCCCC3)c3ccccc23)cc1`, the Potency is reported as inconclusive [inhibitor, single point]. With `CCN(CC(=O)NCC1CCCO1)S(=O)(=O)c1ccc(Cl)cc1` (stereo not given) the Potency was “inactive”. With `FC(F)(F)c1nnc2ccc(Cl)nn12` the Potency was inconclusive [inhibitor, partial curve, poor fit]. In the case of `CCN(CC)C(=O)c1cnn(-c2ccccc2)c1NC(=O)c1cccs1`, the Potency is reported as “inactive”. In the case of `Cc1cnc(NC(=O)c2cccc(S(=O)(=O)N3CC(C)OC(C)C3)c2)s1` (stereo not given), the Potency is reported as inconclusive [inhibitor, single point]. In the case of `c1ccc2[nH]c(NC3=NCCC3)nc2c1`, the Potency is reported as inconclusive [inhibitor, partial curve]. With `Cc1ccc(SCC(=O)N=C2NC(=O)CS2)cc1` the Potency was “inactive”. For `COC(=O)CCC(=O)OC1(C)C(=O)C2=CN(CCCOC(C)C)C(c3ccc(OC)cc3)=CC2=C(Br)C1=O` (stereo not given), the Potency was inconclusive [inhibitor, single point]. For `Cc1c(O)c(CN2CCCC2)cc2c3c(c(=O)oc12)CCC3`, the Potency was active: 3.29 µM. For `O=C(CN(C(=O)c1csnn1)c1cccc2ccccc12)NCc1ccccc1`, the Potency was inconclusive [inhibitor, single point]. With `Cc1ccc(/C=N/NC(=O)C2=NNC(c3ccccc3)(c3ccccc3)C2)c(O)c1` the Potency was active: 4.15 µM. For `COc1ccc(/C=C/C(=O)NC2CCCCCCC2)cc1S(=O)(=O)N1CCOCC1`, the Potency was inconclusive [inhibitor, partial curve]. In the case of `N#Cc1c2c(c(Nc3ccccc3)n3c1nc1ccccc13)CCC2`, the Potency is reported as inconclusive [inhibitor, partial curve]. In the case of `CN(Cc1ccccc1)C(=O)CCn1c(=O)c2cccn2c2cccnc21`, the Potency is reported as inconclusive [inhibitor, single point]. For `COC(=O)Nc1ccc(S(=O)(=O)N2CCCC(C(=O)NC3CCCCC3)C2)cc1` (stereo not given), the Potency was inconclusive [inhibitor, partial curve]. With `Cc1ccc(NC(=O)/C(=C/c2cccc([N+](=O)[O-])c2)NC(=O)C2CCCCC2)c(C)c1` the Potency was inconclusive [inhibitor, partial curve, poor fit]. In the case of `COc1ccccc1CNC(=O)COC(=O)c1cccnc1SCC(=O)NCc1ccccc1OC`, the Potency is reported as “inactive”. With `O=[N+]([O-])c1ccc(N2CCCC2)cc1NC(c1ccccc1)c1ccccc1` the Potency was inconclusive [inhibitor, partial curve, poor fit]. For `CCC(C(=O)c1ccccc1)N(C(=O)c1ccccc1Cl)N1C(=O)C2C3C=CC(C3)C2C1=O` (stereo not given), the Potency was inconclusive [inhibitor, single point]. For `O=C1CCC([N+](=O)[O-])C(c2ccccc2Br)N1` (stereo not given), the Potency was inconclusive [inhibitor, full curve, poor fit]. With `COc1ccc(OC)c(NC(=O)c2ccccc2NC(=O)c2ccco2)c1` the Potency was active: 3.29 µM. In the case of `COC(=O)NC(NC(=S)Nc1cccc(C)c1)C(Cl)(Cl)Cl` (stereo not given), the Potency is reported as inconclusive [inhibitor, partial curve, poor fit]. For `CN(C)c1ccc(NS(=O)(=O)c2cc3c4c(c2)CC(=O)N4CCC3)cc1`, the Potency was “inactive”. For `COc1ccc(Nc2nnc(SCC(=O)c3cc(C)n(CC4CCCO4)c3C)s2)cc1` (stereo not given), the Potency was active: 5.86 µM. With `COc1ccc(C2=CC(c3ccc(OC)c(OC)c3)NC(=S)N2)cc1` (stereo not given) the Potency was inconclusive [inhibitor, full curve, poor fit]. With `Cc1oc(-c2ccccc2)cc1C(=O)Nc1ccccc1` the Potency was “inactive”. In the case of `CC(C)CN(CCCNC(=O)CN1C(=O)COc2ccc(S(=O)(=O)N3CCOCC3)cc21)CC(C)C`, the Potency is reported as “inactive”. In the case of `CC(NC(=O)c1ccc(Br)s1)c1ccncc1` (stereo not given), the Potency is reported as “inactive”. With `O=C(NC(=S)Nc1cccc2c(O)cccc12)c1cccc(Br)c1` the Potency was inconclusive [inhibitor, partial curve, poor fit]. For `CC(=O)Nc1ccc(NC(=O)N(c2ccccc2)c2ccccc2)cc1`, the Potency was “inactive”. For `O=[N+]([O-])c1ccccc1S(=O)(=O)Nc1cccc(-c2ccc(N3CCOCC3)nn2)c1`, the Potency was inconclusive [inhibitor, single point]. With `CCSc1nsc(NC(=O)Nc2ccccc2F)n1` the Potency was “inactive”. For `CO/N=C1\CN(c2nc3c(cc2F)c(=O)c(C(=O)O)cn3C2CC2)CC1CN` (stereo not given), the Potency was active: 1.9 µM. With `Cc1cccc(C)c1OCc1cc(C(=O)N2CCN3CCCC3C2)no1` (stereo not given) the Potency was “inactive”. In the case of `O=C(c1ccccc1)N(Cc1ccc2c(c1)OCO2)Cc1nc2ccccc2c(=O)[nH]1`, the Potency is reported as inconclusive [inhibitor, partial curve, poor fit]. With `Clc1ccccc1C(c1ccccc1)(c1ccccc1)n1ccnc1` the Potency was active: 0.642 µM. In the case of `Cc1cccc(Nc2nnc(-c3ccc(N4CCOCC4)c([N+](=O)[O-])c3)c3ccccc23)c1`, the Potency is reported as active: 11.7 µM. In the case of `Cc1cccc2cc(C(c3nnnn3Cc3ccc4c(c3)OCO4)N3CCCC3)c(=O)[nH]c12` (stereo not given), the Potency is reported as active: 7.38 µM. With `CN(C)CCNC(=O)COc1ccc(Cl)cc1Cl` the Potency was “inactive”. In the case of `COc1ccc(C(=O)/C=C/c2ccc(OC)c(COc3ccc(F)cc3)c2)cc1`, the Potency is reported as inconclusive [inhibitor, partial curve, poor fit]. With `O=C(NCc1cccc(Cl)c1)NC(=O)c1csc([N+](=O)[O-])c1` the Potency was “inactive”. With `COc1ccc(NS(=O)(=O)c2cccc(C(=O)N3CCN(Cc4ccc5c(c4)OCO5)CC3)c2)cc1` the Potency was inconclusive [inhibitor, partial curve, poor fit]. In the case of `C#CCNC(=O)C1=C[C@@H](c2ccc(C#C)cc2)[C@H](CCCO)[C@@H](OCC)O1`, the Potency is reported as inconclusive [inhibitor, single point]. In the case of `CC12CCC(C(=O)NC3CCCC3)(CC1=O)C2(C)C` (stereo not given), the Potency is reported as “inactive”. For `CCNc1nc(NC(C)C)nc(Oc2ccc(OCCOc3ccccc3)nn2)n1`, the Potency was inconclusive [inhibitor, partial curve, poor fit].
